Source: PubChem BioAssay AID485344 (National Center for Advancing Translational Sciences (NCATS), 2010)
About 6,900 (2%) of roughly 340,000 compounds were called active. No stated cut-off is given here; in the data, active means inhibition above about 30%; inactive means below that, where a call was filed. The list shows a part of the results, in another mix than the full data. The source gives no active or inactive call for entries shown without one.

Molecular target: D(2) dopamine receptor (Homo sapiens) (UniProt P14416)
Assay: HTS Assay for Allosteric Antagonists of the Human D2 Dopamine Receptor: Primary Screen for Antagonists; further: 0% is about no effect
Details: HEK293 TREx D2 cells, calcium flux, dopamine EC80; at 10 µM; stronger effect = higher value
In short: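 HEK293 T-REx D2 cells, tet-induced, calcium dye no-wash. Cpd pintool add, 180 s kinetic, then EC80 DA, 180 s kinetic. Ca flux read.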

Sequence of UniProt P14416 (P14416 whole entry, looked up): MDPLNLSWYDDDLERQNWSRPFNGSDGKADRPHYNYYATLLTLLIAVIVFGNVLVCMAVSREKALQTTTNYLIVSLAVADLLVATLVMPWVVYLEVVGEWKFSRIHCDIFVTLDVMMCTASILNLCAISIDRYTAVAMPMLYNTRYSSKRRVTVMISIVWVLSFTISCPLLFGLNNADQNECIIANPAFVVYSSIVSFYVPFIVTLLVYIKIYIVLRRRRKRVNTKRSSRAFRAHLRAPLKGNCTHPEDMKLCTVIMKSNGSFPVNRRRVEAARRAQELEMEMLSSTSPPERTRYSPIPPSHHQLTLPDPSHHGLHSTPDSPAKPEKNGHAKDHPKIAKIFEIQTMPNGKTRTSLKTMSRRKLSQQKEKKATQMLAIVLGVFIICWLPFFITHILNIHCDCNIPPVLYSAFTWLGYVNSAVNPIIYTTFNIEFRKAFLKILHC

Structure (SMILES) | inhibition
COc1ccc(-n2ncc(C(=O)NCCCN3CCCCC3)c2C2CCN(C(=O)OC(C)(C)C)CC2)cc1 | 4.67%
COc1c(Cl)cc(Cl)cc1/C=C(\C#N)c1nc(-c2ccc(Cl)cc2)cs1 | -0.299%
CCOCCCNC(=O)Cn1cc2c(n1)-c1c(oc(C(=O)N3CCCC3)c1C)CC2 | -9.98%
Cc1cccc(OCCOCCn2c(-c3ccc(Cl)cc3)nc3ccccc3c2=O)c1C | 1.6%
COC(=O)Cn1ccc2cc(S(=O)(=O)N3CCCCC3)ccc21 | -16.6%
Cc1ccccc1NC(=O)c1ccc(F)c(S(=O)(=O)N2CCc3ccccc3C2)c1 | -17.5%
Cc1ccc(C(C)C)c(OCCCn2c(=O)oc3ccc(C)cc32)c1 | 5.9%
CN(C)NC(=S)Nc1cccc(Cl)c1 | active: 44.6%
CCOc1cccc(C(=O)Nc2ccc(-c3nc4cc(C)cc(C)c4o3)cc2)c1 | -6.98%
CCc1ccccc1NC(=O)NC1CC2CCC(C1)N2Cc1ccco1 (stereo not drawn) | active: 32.3%
CCCCN(Cc1ccco1)C(=O)c1cc2c(s1)-c1c(C)cccc1OC2 | -7.8%
CCOC(=O)c1ccccc1NC(=O)c1nn(-c2ccc(C)cc2)c(=O)n(C)c1=O | 5.71%
CCc1ccc(S(=O)(=O)N2CCN(c3ccc(Cl)c(Cl)c3)CC2)cc1 | 1.86%
CCn1c(=O)cc(SCC(=O)Nc2cc(Cl)ccc2OC)c2ccccc21 | -10.7%
Cc1ccc(C(=O)Nc2nnc(S(=O)(=O)N(C)Cc3ccc(F)cc3)s2)cc1 | -1.84%
CCOc1ccc(-c2nnc(SCC(=O)Oc3ccccc3)o2)cc1 | 2.08%
Cc1nc(NS(=O)(=O)c2ccccc2)sc1NC(=O)Nc1ccccc1 | active: 55.3%
CSc1ccc(NC(=O)NCCCN2CCN(c3ccccc3F)CC2)cc1 | active: 100%
O=c1c2c3c(sc2nnn1Cc1ccc(F)cc1)CCCC3 | -3.11%
COc1ccc(-n2ccnc(NCc3cccs3)c2=O)cc1 | 3.01%
CCOc1ccc(-n2c(C)nc3cc(C(=O)NCc4ccc(C)cc4)ccc32)cc1 | 4.66%
COc1ccc(-c2ccc(-c3noc(-c4cc(OC)cc(OC)c4)n3)c(OC)n2)cc1 | -2.63%
O=C(O)CNC(=O)c1ccccc1Br | active: 39.8%
CCNc1nc(CSc2ccccc2)nc2sc(C)c(C)c12 | active: 39.3%
CCOC(=O)C1C(=O)NC(c2ccccc2)=NC1c1cccc(Br)c1 (stereo not drawn) | active: 55.2%
CCOC(=O)C1CCCN(C(=O)Cn2ncc3c(C)n(Cc4ccc(F)cc4)c(C)c3c2=O)C1 (stereo not drawn) | 0.218%
CCOc1ccc(OCC)c(NC(=O)c2cnn(-c3ccc(F)cc3)c2C2CCN(C(=O)OC(C)(C)C)CC2)c1 | 7.71%
COc1cc(C(=O)OCC(=O)Nc2ccccc2C(=O)NC2CC2)c([N+](=O)[O-])cc1OC | active: 34.1%
